The chains are these.
B1: glnA; numbered along this chain (parent)
chain: MSAEHVLTMLNEHEVKFVDLRFTDTKGKEQHVTIPAHQVNAEFFEEGKMFDGSSIGGWKGINESDMVLMPDASTAVIDPFFADSTLIIRCDILEPGTLQGYDRDPRSIAKRAEDYLRSTGIADTVLFGPEPEFFLFDDIRFGSSISGSHVAIDDIEGAWNSSTQYEGGNKGHRPAVKGGYFPVPPVDSAQDIRSEMCLVMEQMGLVVEAHHHEVATAGQNEVATRFNTMTKKADEIQIYKYVVHNVAHRFGKTATFMPKPMFGDNGSGMHCHMSLSKNGVNLFAGDKYAGLSEQALYYIGGVIKHAKAINALANPTTNSYKRLVPGYEAPVMLAYSARNRSASIRIPVVSSPKARRIEVRFPDPAANPYLCFAALLMAGLDGIKNKIHPGEAMDKNLYDLPPEEAKEIPQVAGSLEEALNELDLDREFLKAGGVFTDEAIDAYIALRREEDDRVRMTPHPVEFELYYSV

The variants in this data set derive from B1. Briefly: barcode share on antibiotic plates over drug-free plates; higher = less susceptible. The conditions noted are these: with Escherichia coli (laboratory strain). How it is done: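 A pool of E. coli strains, each edited to carry one amino-acid change in an essential protein, was grown for 48 h on minimal glucose agar with or without antibiotic; strain barcodes were sequenced; mean of two replicates.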

Where [1] appears, read: antibiotic: carbenicillin, 2× MIC (3.1 µg/mL).
The mark [2] stands for this setting: antibiotic: gentamicin, 2× MIC (MIC 0.45 µg/mL).

± gives the standard deviation of the averaged measurements. Laboratory Escherichia coli strains with one amino-acid change in an essential protein, pooled on minimal glucose agar with carbenicillin or gentamicin at twice the control MIC (plus kanamycin and chloramphenicol for the plasmids), 48 h. Fold change of barcode share against drug-free plates; higher = less susceptible. Active = above 20 in both replicates (the paper's putatively resistant). '<' = one read or none on drug, '>' = one read or none on a drug-free plate. Shares are relative, so most strains fall below 1 when a few take over. Listed are strains with at least 15 reads on both drug-free plates, and hits; most hits rest on fewer reference reads. Replicate rank correlation about 0.5. Edits are read from barcodes.

As for MSAEHVLTMLNEHEVKFVDLRFTDTKGKEQHVTIPAHQVNAEFFEEGKMFDGSSIGGWKGINESDMVLMPDASTAVIDPFFADSTLIIRCDILEPGTLQGYDRDPRSIAKRAEDYLRSTGIADTVLFGPEPEFFLWDDIRFGSSISGSHVAIDDIEGAWNSSTQYEGGNKGHRPAVKGGYFPVPPVDSAQDIRSEMCLVMEQMGLVVEAHHHEVATAGQNEVATRFNTMTKKADEIQIYKYVVHNVAHRFGKTATFMPKPMFGDNGSGMHCHMSLSKNGVNLFAGDKYAGLSEQALYYIGGVIKHAKAINALANPTTNSYKRLVPGYEAPVMLAYSARNRSASIRIPVVSSPKARRIEVRFPDPAANPYLCFAALLMAGLDGIKNKIHPGEAMDKNLYDLPPEEAKEIPQVAGSLEEALNELDLDREFLKAGGVFTDEAIDAYIALRREEDDRVRMTPHPVEFELYYSV [F136W], the “fold change of barcode share” value runs as follows: under setting [1], 0.2905 ± 0.00044; under setting [2], 0.0113 ± 0.0034.

MSAEHVLTMLNEHEVKFVDLRFTDTKGKEQHVTIPAHQVNAEFFEEGKMFDGSSIGGWKGINESDMVLMPDASTAVIDPFFADSTLDIRCDILEPGTLQGYDRDPRSIAKRAEDYLRSTGIADTVLFGPEPEFFLFDDIRFGSSISGSHVAIDDIEGAWNSSTQYEGGNKGHRPAVKGGYFPVPPVDSAQDIRSEMCLVMEQMGLVVEAHHHEVATAGQNEVATRFNTMTKKADEIQIYKYVVHNVAHRFGKTATFMPKPMFGDNGSGMHCHMSLSKNGVNLFAGDKYAGLSEQALYYIGGVIKHAKAINALANPTTNSYKRLVPGYEAPVMLAYSARNRSASIRIPVVSSPKARRIEVRFPDPAANPYLCFAALLMAGLDGIKNKIHPGEAMDKNLYDLPPEEAKEIPQVAGSLEEALNELDLDREFLKAGGVFTDEAIDAYIALRREEDDRVRMTPHPVEFELYYSV [I87D]: the “fold change of barcode share” value under setting [1] worked out at 0.609 ± 0.048 and the “fold change of barcode share” value under setting [2] was less than 0.00962.

As for MSAEHVLTMLNEHEVKFVDLRFTDTKGKEQHVTIPAHQVNAEFFEEGKMFDGSSIGGWKGINESDMVLMPDASTAVIDPFFADSTLIIRCDILEPGTLQGYDRDPRSIAKRAEDYLRSTGIADTVLFGPEPEFFLFDDIRFGSSISGSHVAIDDIEGAWNSSTQYEGGNKGHRPAVKGGYFPVPPVDSAQDIRSEMCLVMEQMGLVVEAHHHEVATAGQNEVATRFNTMTKKADEIQIYKYVVHNVAHRFGKTATFMPKPMFGDNGSGMHCHMSLSKNGVNLFAGDKYAGLSEQALYYIGGVIKHAKAINALANPTTNSYKRLVPGYEAPVMLAYSARNRSASIRIPVVSSPKARRIEVRFPDPAANPYLCFAALLAAGLDGIKNKIHPGEAMDKNLYDLPPEEAKEIPQVAGSLEEALNELDLDREFLKAGGVFTDEAIDAYIALRREEDDRVRMTPHPVEFELYYSV [M377A], the “fold change of barcode share” value under setting [1] amounted to 0.629 ± 0.23 and the “fold change of barcode share” value under setting [2] was less than 0.0154.

MSAEHVLTMLNEHEVKFVDLRFTDTKGKEQHVTIPAHQVNAEFFEEGKMFDGSSIGGWKGINESDMVLMPDASTAVIDPFFADSTLIIRCDILEPGTLQGYDRDPRSIAKRAEDYLRSTGIADTVLFGPEPEFFLFDDIRFGSSISGSHVAIDDIEGAWNSSTQYEGGNKGHRPAVKGGYFPVPPVDSAQDIRSEMCLVMEQMGLVVEAHHHEVATAGQNEVATRFNTMTKKADEIQIYKYVVHNVAHRFGKTATFMPKPMFGDNGSGMHCHMSLSKNGVNLFAGDKYAGLSEQALYYIGGVIKHAKAINALANPTTNSYKRLVPGYEAPVDLAYSARNRSASIRIPVVSSPKARRIEVRFPDPAANPYLCFAALLMAGLDGIKNKIHPGEAMDKNLYDLPPEEAKEIPQVAGSLEEALNELDLDREFLKAGGVFTDEAIDAYIALRREEDDRVRMTPHPVEFELYYSV [M332D]: the “fold change of barcode share” value under setting [1] amounted to 0.496 ± 0.22 and the “fold change of barcode share” value under setting [2] was less than 0.00481.

In the case of MSAEHVLTMLNEHEVKFVDLRFTDTKGKEQHVTIPAHQVNAEFFEEGKMFDGSSIGGWKGINESDMVLMPDASTAVIDPFFADSTLIIRCDILEPGTLQGYDRDPRSIAKRAEDYLRSTGIADTVLFGPEPEFFAFDDIRFGSSISGSHVAIDDIEGAWNSSTQYEGGNKGHRPAVKGGYFPVPPVDSAQDIRSEMCLVMEQMGLVVEAHHHEVATAGQNEVATRFNTMTKKADEIQIYKYVVHNVAHRFGKTATFMPKPMFGDNGSGMHCHMSLSKNGVNLFAGDKYAGLSEQALYYIGGVIKHAKAINALANPTTNSYKRLVPGYEAPVMLAYSARNRSASIRIPVVSSPKARRIEVRFPDPAANPYLCFAALLMAGLDGIKNKIHPGEAMDKNLYDLPPEEAKEIPQVAGSLEEALNELDLDREFLKAGGVFTDEAIDAYIALRREEDDRVRMTPHPVEFELYYSV [L135A], the “fold change of barcode share” value under setting [1] came out at 0.577 ± 0.1 and the “fold change of barcode share” value under setting [2] was less than 0.0143.

On to MSAEHVLTMLNEHEVKFVDLRFTDTKGKEQHVTIPAHQVNAEFFEEGKMFDGSSIGGWKGINESDMVLMPDASTAVIDPFFADSTLIIRCDILEPGTLQGYDRDPRSIAKRAEDYLRSTGIADTVLFGPEPEFFQFDDIRFGSSISGSHVAIDDIEGAWNSSTQYEGGNKGHRPAVKGGYFPVPPVDSAQDIRSEMCLVMEQMGLVVEAHHHEVATAGQNEVATRFNTMTKKADEIQIYKYVVHNVAHRFGKTATFMPKPMFGDNGSGMHCHMSLSKNGVNLFAGDKYAGLSEQALYYIGGVIKHAKAINALANPTTNSYKRLVPGYEAPVMLAYSARNRSASIRIPVVSSPKARRIEVRFPDPAANPYLCFAALLMAGLDGIKNKIHPGEAMDKNLYDLPPEEAKEIPQVAGSLEEALNELDLDREFLKAGGVFTDEAIDAYIALRREEDDRVRMTPHPVEFELYYSV [L135Q], for which the “fold change of barcode share” value by setting is: under setting [1], 0.328 ± 0.063; under setting [2], less than 0.0112.

MSAEHVLTMLNEHEVKFVDLRFTDTKGKEQHVTIPAHQVNAEFFEEGKMFDGSSIGGWKGINESDMVLMPDASTAVIDPFFADSTLIIRCDILEPGTLQGYDRDPRSIAKRAEDYLRSTGIADTVLFGPEPEFFLFDDIRFGSSISGSHVAIDDIEGAWNSSTQYEGGNKGHRPAVKGGYFPVPPVDSAQDIRSEMCLVMEQMGLVVEAHHHEVATAGQNEVATRFNTMTKKADEIQIYKYVVHNVAHRFGKTATFMPKPMFGDNGSGMHCHMSLSKNGVNLFAGDKYAGLSEQALYYIGGVIKHAKAINALANPTTNSYKRLVPGYEAPVMLAYSARNRSASIRIPVVSSPKARRIEVRFPDPAANPYLCFAAPLMAGLDGIKNKIHPGEAMDKNLYDLPPEEAKEIPQVAGSLEEALNELDLDREFLKAGGVFTDEAIDAYIALRREEDDRVRMTPHPVEFELYYSV [L375P]: the “fold change of barcode share” value runs as follows: under setting [1], 0.292 ± 0.079; under setting [2], less than 0.0113.

The values above are taken from the supplement of paper PMC11876631.
